# Measured values: PubChem BioAssay AID1460 (National Center for Advancing Translational Sciences (NCATS), 2008)
# Screen size: about 270,000 compounds; about 5,800 (2.1%) were called active. The shares of active, inactive and inconclusive entries below differ from those in the screen. The call rests on the fitted dose curve; in most records, active means well fitted inhibition curve with a large enough effect; inconclusive means small, poorly fitted or top-dose-only effect; inactive means flat fitted curve, though single readings scatter. Potencies of inconclusive entries are doubtful fits and often do not repeat.
# Target: Microtubule-associated protein tau (Homo sapiens) (UniProt P10636)
# Assay: qHTS for Inhibitors of Tau Fibril Formation, Thioflavin T Binding; further: nearly all actives have a fitted effect of over 55% in size
# Conditions: recombinant tau K18 P301L (four-repeat tau fragment), heparin-induced fibrillization, ThT fluorescence; series mostly up to 57.4 µM; activity, negative = inhibition: at the top concentration
# Summary of the method: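 Tau K18 P301L fragment (15 uM unlabeled plus 0.24 uM Alexa 594-labeled) in 100 mM sodium acetate pH 7 with compound, fibrillization induced by 20 uM heparin for 6 hr at 37 C. Thioflavin T (30 uM) added, fluorescence read after 1 hr (ex 450, em 510 nm).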
# On the % scale 0 is the no-effect control and ±100 the full control effect; potency means the concentration at half of the fitted maximal effect; tags describe the fitted curve by direction and shape.
# Sequence of UniProt P10636 (P10636 whole entry, looked up): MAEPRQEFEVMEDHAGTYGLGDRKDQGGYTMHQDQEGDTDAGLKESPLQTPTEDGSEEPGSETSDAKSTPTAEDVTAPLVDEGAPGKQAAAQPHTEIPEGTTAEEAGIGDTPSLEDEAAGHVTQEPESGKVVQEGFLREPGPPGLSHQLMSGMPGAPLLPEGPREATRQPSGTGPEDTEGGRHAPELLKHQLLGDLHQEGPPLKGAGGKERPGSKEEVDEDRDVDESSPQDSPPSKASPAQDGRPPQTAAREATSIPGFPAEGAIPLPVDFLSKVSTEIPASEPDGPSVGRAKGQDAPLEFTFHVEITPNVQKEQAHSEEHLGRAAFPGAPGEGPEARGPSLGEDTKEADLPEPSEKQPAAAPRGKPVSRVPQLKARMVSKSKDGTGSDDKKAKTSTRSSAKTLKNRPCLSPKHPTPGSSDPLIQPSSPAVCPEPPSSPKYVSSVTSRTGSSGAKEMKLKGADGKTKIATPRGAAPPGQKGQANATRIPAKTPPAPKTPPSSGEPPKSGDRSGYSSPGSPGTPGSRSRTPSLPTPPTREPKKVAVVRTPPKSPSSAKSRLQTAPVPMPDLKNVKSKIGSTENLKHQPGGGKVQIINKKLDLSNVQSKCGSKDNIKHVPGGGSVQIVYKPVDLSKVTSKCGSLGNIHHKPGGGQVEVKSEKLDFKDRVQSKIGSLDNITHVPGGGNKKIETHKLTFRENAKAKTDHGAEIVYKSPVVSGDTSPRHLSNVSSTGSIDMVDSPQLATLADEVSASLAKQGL
SMILES,Potency,"activity, negative = inhibition"
COc1ccc(C2C(C#N)=C(N)Oc3n[nH]c(C)c32)cc1Cn1nnc2ccccc21 (configuration not stated),"inconclusive: 15.8 µM [inhibitor, partial curve]",–
N#C/C(=C\c1ccccc1OCc1ccc(C(=O)O)cc1)C(=O)Nc1ccc(O)cc1,"inconclusive: 17.8 µM [inhibitor, partial curve]",–
COC(=O)c1sc(N)c(C(=O)OC)c1COC(=O)CNS(=O)(=O)c1ccc(C)c(C)c1,"inconclusive: 39.8 µM [inhibitor, single point]",–
C/C(=N\NS(=O)(=O)c1cccc([N+](=O)[O-])c1)c1cc2ccccc2o1,"inconclusive: 14.1 µM [inhibitor, partial curve]",–
C=CCSc1nnc(NC(=O)CSc2nc3ccccc3[nH]2)s1,"inconclusive: 17.8 µM [inhibitor, partial curve, poor fit]",–
C/C(CC(=O)NC1CCCCC1)=N\NC(=O)Cc1ccc(-c2ccccc2)cc1,–,inactive: -5.9%
C[C@@H]1CN(Cc2nc(-c3cccs3)no2)C[C@H](C)O1,–,inactive: 2.92%
CCOc1ccc(S(=O)(=O)NCC(c2ccc(N(C)C)cc2)N2CCCC2)cc1 (configuration not stated),–,inactive: -15.6%
COC(=O)c1ccc(C(=O)OC)c(NC(=O)COC(=O)CC2CC3CCC2C3)c1 (configuration not stated),"inconclusive: 31.6 µM [inhibitor, partial curve, poor fit]",–
O=C(COc1ccc(F)cc1)Nc1ccc2nc(SCC(=O)N3CCCC3)sc2c1,"inconclusive: 0.631 µM [inhibitor, full curve]",–
CCc1nn(CC(=O)Nc2ccc(C)c(F)c2)c(=O)c2cc3cc(C)ccc3n12,–,inactive: -1.95%
Oc1cccc(-c2nc3ccccc3s2)c1,–,inactive: -17.2%
Cc1ccc(-c2onc(C)c2C)cc1S(=O)(=O)NCc1cccs1,–,inactive: -5.3%
Cc1cccc(C)c1Nc1c(-c2ccccc2Cl)nc2cnccn12,–,inactive: -12.7%
C=CCn1c(SCC(=O)N2CCN(c3ccc(F)cc3)CC2)nnc1-c1cccs1,"inconclusive: 4.47 µM [inhibitor, partial curve]",–
Cc1cc(C)n2nc(SCc3nc4ccccc4[nH]3)nc2n1,–,inactive: 2.75%
Brc1ccc(Cn2c(-c3ccc(Br)o3)nc3ccccc32)o1,"inconclusive: 7.08 µM [inhibitor, partial curve]",–
NC(=O)CC(NC(=O)c1ccccc1)c1ccc(NCCc2cccc(F)c2)c([N+](=O)[O-])c1 (configuration not stated),active: 15.8 µM,–
CC(C)(C)c1ccc(C(=O)NCC(=O)OCC(=O)Nc2ccc3c(c2)OCCO3)cc1,–,inactive: -19.6%
COc1ccc(OC)c(S(=O)(=O)NCCc2sc(-c3cccnc3)nc2C)c1,–,inactive: -5.33%
Cc1cnc(C(=O)Nc2nc(-c3ccccc3)cs2)cn1,–,inactive: -12.5%
CC(=O)N[C@@H](CSC/C=C(\C)CC/C=C(\C)CC/C=C(\C)CCC=C(C)C)C(=O)O,"inconclusive: 28.2 µM [inhibitor, partial curve]",–
CC(=O)N1CCN(c2ccc(Nc3ncnc4c3oc3ccccc34)cc2)CC1,active: 4.47 µM,–
O=C(CSc1nc(-c2ccccc2)c(-c2ccccc2)[nH]1)Nc1ccc2c(c1)OCO2,–,inactive: -6.08%

SMILES,Potency,"activity, negative = inhibition"
CCN(Cc1ccccc1)C(=O)CCS(=O)(=O)c1cc2c(cc1Cl)NC(=O)CO2,–,inactive: 4.12%
O=C(Nc1cnn(Cc2ccc(Cl)cc2Cl)c1)c1cc(-c2cccs2)on1,–,inactive: -3.5%
Cn1c(SCC(=O)NCc2ccco2)nnc1-c1c[nH]c2ccccc12,"inconclusive: 39.8 µM [inhibitor, single point]",–
O=S(=O)(CCc1ccccc1)c1nnnn1-c1ccccc1,–,inactive: 5.69%
Cc1nn2c3c(cnc2c1-c1ccccc1)C(=O)CC(c1ccco1)C3 (configuration not stated),–,inactive: -10.1%
S=c1[nH]nc(CCc2ccccc2)n1-c1ccccc1,–,inactive: -1.9%
CCCNS(=O)(=O)c1ccc(CCC(=O)Nc2ccc3c(c2)OCCO3)cc1,"inconclusive: 2.51 µM [inhibitor, single point]",–
COc1ccc(CCNc2oc(COc3ccc(Br)cc3)nc2C#N)cc1OC,"inconclusive: 1.26 µM [inhibitor, full curve]",–
COc1cc(OC)c(NS(=O)(=O)c2cc3c(cc2C)NC(=O)CO3)cc1Cl,–,inactive: 2.36%
Cc1c(N/N=C(\C#N)C(=O)c2ccccc2)c(=O)n(-c2ccccc2)n1C,"inconclusive: 14.1 µM [inhibitor, partial curve]",–
Cc1cccc(C(=O)NC(=S)Nc2ccc(S(=O)(=O)N(C)c3ccccc3)cc2)c1,–,inactive: -15.4%
Cc1cc([N+](=O)[O-])c(N2CCC[C@@H]2C(=O)O)c([N+](=O)[O-])c1,"inconclusive: 39.8 µM [inhibitor, partial curve, poor fit]",–
N#Cc1c(-c2ccccc2Cl)noc1/C=C/Nc1ccc(C(=O)O)cc1,"inconclusive: 28.2 µM [inhibitor, partial curve]",–
CCCCC(=O)Nc1ccc(NC(=S)NC(=O)c2cccs2)cc1OC,"inconclusive: 31.6 µM [inhibitor, single point]",–
Cc1ccc(C(=O)Nc2ccc3nc(SCC(=O)N4CCc5ccccc54)sc3c2)cc1,"inconclusive: 0.794 µM [inhibitor, full curve]",–
Cc1cc2oc(C(=O)Nc3sc4c(c3C(=O)NCc3ccco3)CCC4)cc(=O)c2cc1C,"inconclusive: 12.6 µM [inhibitor, partial curve]",–
COc1ccc(Nc2ccc([N+](=O)[O-])cc2[N+](=O)[O-])cc1,"inconclusive: 25.1 µM [inhibitor, partial curve]",–
O=C(Cn1cc(SCc2cccc(F)c2)c2ccccc21)N1CCCC1,"inconclusive: 39.8 µM [inhibitor, single point]",–
Cc1ccc(C(=O)Nc2nc(C(C)(C)C)cs2)s1,"inconclusive: 12.6 µM [inhibitor, partial curve]",–
CCC(=O)c1ccc2c(c1)N(CCCN(C)C)c1ccccc1S2,"inconclusive: 14.1 µM [inhibitor, partial curve]",–
O=[N+]([O-])c1ccc(-c2ccc(/C=N/Nc3nc(NCc4ccccc4)nc(N4CCOCC4)n3)o2)cc1,active: 2.82 µM,–
C=CCNC(=S)Nc1cccc(N)c1,"inconclusive: 22.4 µM [inhibitor, single point]",–
Cc1cc(/C=C(\C#N)C(=O)NCC2CCCO2)c(C)n1-c1ccc(Cl)cc1 (configuration not stated),"inconclusive: 25.1 µM [inhibitor, partial curve]",–
Cc1ccc(NC(=O)CSc2ncnc3ccccc23)cc1S(=O)(=O)N1CCCCC1,"inconclusive: 25.1 µM [inhibitor, single point]",–

SMILES,Potency,"activity, negative = inhibition"
COc1ccc(C(=O)Nc2sc(C)c(-c3ccccc3)c2C#N)cc1OC,"inconclusive: 28.2 µM [inhibitor, partial curve]",–
CCOC(=O)c1ccc(CN(Cc2ccc(F)cc2)S(=O)(=O)c2ccc(F)cc2)cc1,–,inactive: -3.09%
COc1ccc(OCCCC(=O)Nc2ccc3c(c2)OCO3)cc1,"inconclusive: 11.2 µM [inhibitor, partial curve]",–
CCOC(=O)c1c(C)[nH]c(C)c1S(=O)(=O)N1CCC(C(=O)N2CCN(c3cccc(C)c3)C(C)C2)CC1 (configuration not stated),–,inactive: -5.22%
COc1ccc(Nc2ncccc2C(=O)Nc2ccccc2)cc1,–,inactive: -4.25%
COc1ccc(CCNC(=O)Cc2c(C)c3c(cc(C)c4c(C)coc43)oc2=O)cc1,–,inactive: 8.7%
COc1ccc(OCc2nc3c4cc(OC)c(OC)cc4nc(=S)n3[nH]2)cc1,"inconclusive: 14.1 µM [inhibitor, partial curve]",–
Cc1ccc(NC(=O)CSc2nc(C)c(Cc3ccccc3)c(=O)[nH]2)cc1,"inconclusive: 14.1 µM [inhibitor, single point]",–
Cc1[nH]c2c(ccc3ccccc32)c1C1C(CCN)C1(C)C (configuration not stated),"inconclusive: 22.4 µM [inhibitor, partial curve]",–
COC(=O)c1ccc(NC(=O)CSc2nc3ccc(OC)cc3[nH]2)cc1,"inconclusive: 0.0562 µM [inhibitor, full curve]",–
COc1ccc(CCNC(=O)CN(c2ccccc2OC)S(=O)(=O)c2ccc(C)cc2)cc1,"inconclusive: 39.8 µM [inhibitor, single point]",–
COC(=O)c1c(NC(=O)c2cc(=O)c3ccc(C)c(C)c3o2)sc2c1CCCC2,–,inactive: 2.11%
O=C(Nc1sc2c(c1C(=O)Nc1ccccc1Cl)CCCC2)c1ccccc1F,–,inactive: -5.89%
NS(=O)(=O)c1ccc(Nc2nc(-c3ccc(O)cc3O)cs2)cc1,active: 6.31 µM,–
Cc1c(Cl)cccc1NC(=O)N1CCC(CN2CCCC2)CC1,–,inactive: -0.233%
Cc1cccc(NC(=O)CN2C(=O)N/C(=C/c3cc(C)n(C)c3C)C2=O)c1,"inconclusive: 15.8 µM [inhibitor, single point]",–
COc1cc(C(=O)O)ccc1O,–,inactive: -5.49%
COc1ccccc1CNS(=O)(=O)c1ccc2[nH]c3c(c2c1)CCCCC3,–,inactive: -9.25%
COc1cc(C(=O)O/N=C2/C=CC(=O)C(C)=C2C)cc(OC)c1OC,"inconclusive: 8.91 µM [inhibitor, full curve]",–
CCN(CC)c1ccc(C(=O)N/N=C(\C)c2cccc(OC)c2)cc1,"inconclusive: 12.6 µM [inhibitor, partial curve]",–
Cc1ccc(S(=O)(=O)Nc2ccc3c(c2)nc2n3CCN(Cc3ccccc3)C2)cc1,"inconclusive: 12.6 µM [inhibitor, partial curve, poor fit]",–
COc1ccc2c(c1)c(C(=O)CN1CCN(c3ccccc3)CC1)c(C)n2C,"inconclusive: 28.2 µM [inhibitor, partial curve]",–
CCOC(=O)/C=C/C(=O)OCC(=O)Nc1cccc(Cl)c1Cl,"inconclusive: 14.1 µM [inhibitor, partial curve]",–
COc1ccc2c(c1)S(=O)(=O)c1ccccc1N2,–,inactive: -6.61%
